# Laboratory results: publication PMC6265451
# By UniProt entry, the sequences of proteins in these tests, tags left out.
# UniProt P29468: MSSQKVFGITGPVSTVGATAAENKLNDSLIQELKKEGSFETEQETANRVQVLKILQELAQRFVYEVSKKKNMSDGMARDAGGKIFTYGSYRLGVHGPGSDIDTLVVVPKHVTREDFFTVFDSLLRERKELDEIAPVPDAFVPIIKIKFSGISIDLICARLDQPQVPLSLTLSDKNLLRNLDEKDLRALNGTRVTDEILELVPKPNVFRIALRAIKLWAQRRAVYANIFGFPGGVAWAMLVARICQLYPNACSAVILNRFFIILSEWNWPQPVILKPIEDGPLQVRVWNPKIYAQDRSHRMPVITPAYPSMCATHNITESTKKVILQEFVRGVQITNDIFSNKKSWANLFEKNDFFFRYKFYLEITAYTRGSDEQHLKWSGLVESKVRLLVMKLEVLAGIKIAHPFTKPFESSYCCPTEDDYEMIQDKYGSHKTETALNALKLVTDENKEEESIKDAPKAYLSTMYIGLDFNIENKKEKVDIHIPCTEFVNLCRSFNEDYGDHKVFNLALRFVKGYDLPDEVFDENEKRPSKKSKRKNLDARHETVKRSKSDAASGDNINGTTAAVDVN
# These are yes or no findings as the source states them, for the method shown. Some binding calls cover weakened binding; strength is not graded here.
# T1: Pta1-TAPS (S. cerevisiae) (UniProt Q01329)
# T1 sequence: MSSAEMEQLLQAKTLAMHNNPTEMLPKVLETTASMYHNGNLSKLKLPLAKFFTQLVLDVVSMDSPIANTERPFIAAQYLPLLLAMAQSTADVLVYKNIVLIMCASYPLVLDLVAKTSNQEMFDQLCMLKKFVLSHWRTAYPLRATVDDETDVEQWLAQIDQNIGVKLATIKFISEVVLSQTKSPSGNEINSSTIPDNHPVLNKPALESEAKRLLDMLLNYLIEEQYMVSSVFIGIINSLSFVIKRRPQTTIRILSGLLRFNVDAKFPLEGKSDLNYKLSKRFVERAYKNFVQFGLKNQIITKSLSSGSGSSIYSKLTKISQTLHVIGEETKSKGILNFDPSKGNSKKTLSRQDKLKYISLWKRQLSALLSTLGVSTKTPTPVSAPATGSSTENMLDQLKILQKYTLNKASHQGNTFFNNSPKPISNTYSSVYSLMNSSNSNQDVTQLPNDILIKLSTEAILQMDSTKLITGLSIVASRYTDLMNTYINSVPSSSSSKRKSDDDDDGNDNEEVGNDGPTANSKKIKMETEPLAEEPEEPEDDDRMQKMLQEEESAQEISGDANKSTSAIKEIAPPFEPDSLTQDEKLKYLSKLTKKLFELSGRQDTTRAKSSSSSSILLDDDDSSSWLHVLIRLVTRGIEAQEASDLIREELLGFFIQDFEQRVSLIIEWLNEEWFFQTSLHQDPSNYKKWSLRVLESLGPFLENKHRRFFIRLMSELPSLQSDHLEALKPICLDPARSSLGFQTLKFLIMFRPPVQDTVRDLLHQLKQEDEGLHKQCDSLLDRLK
# T2: Ref2-TAPS (S. cerevisiae) (UniProt P42073)
# T2 sequence: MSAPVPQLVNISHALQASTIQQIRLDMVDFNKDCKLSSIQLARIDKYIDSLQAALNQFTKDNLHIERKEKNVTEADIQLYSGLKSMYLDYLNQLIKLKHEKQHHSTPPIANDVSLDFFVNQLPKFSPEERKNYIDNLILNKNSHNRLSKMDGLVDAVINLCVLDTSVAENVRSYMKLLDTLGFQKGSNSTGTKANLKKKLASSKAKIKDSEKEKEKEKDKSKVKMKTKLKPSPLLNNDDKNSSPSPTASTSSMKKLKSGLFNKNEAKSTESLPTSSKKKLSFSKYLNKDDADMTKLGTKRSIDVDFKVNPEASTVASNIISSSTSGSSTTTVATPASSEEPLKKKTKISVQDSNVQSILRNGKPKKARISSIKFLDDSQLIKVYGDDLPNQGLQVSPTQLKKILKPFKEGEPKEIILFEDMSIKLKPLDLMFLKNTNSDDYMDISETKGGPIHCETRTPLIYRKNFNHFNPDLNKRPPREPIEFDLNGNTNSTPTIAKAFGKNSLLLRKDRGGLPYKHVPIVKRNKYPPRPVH
# T3: Syc1-TAPS (S. cerevisiae) (UniProt Q08553)
# T3 sequence: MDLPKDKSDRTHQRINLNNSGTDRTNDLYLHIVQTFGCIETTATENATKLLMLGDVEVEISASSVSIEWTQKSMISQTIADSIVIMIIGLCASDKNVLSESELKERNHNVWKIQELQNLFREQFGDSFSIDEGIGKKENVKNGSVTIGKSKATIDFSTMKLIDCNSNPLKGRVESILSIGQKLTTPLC
# T4: Mpe1-TAPS (S. cerevisiae) (UniProt P35728)
# T4 sequence: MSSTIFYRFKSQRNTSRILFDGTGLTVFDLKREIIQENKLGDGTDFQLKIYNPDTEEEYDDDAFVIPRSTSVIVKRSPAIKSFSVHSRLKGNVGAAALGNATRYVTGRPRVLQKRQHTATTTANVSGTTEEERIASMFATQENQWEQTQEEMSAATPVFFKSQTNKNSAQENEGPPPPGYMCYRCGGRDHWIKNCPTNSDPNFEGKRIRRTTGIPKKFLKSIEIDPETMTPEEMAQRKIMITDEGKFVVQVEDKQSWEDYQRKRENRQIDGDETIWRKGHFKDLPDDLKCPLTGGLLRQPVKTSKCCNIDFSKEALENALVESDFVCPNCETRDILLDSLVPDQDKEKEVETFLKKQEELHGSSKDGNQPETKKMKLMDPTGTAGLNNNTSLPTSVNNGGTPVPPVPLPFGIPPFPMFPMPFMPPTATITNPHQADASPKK
# B1: Cft1 (protein, UniProt Q06632 1-1357)
# chain: MNVYDDVLDATVVSHSLATHFTTSDYEELLVVRTNILSVYRPTRDGKLYLTDEFKFHGLITDIGLIPQKDSPLSCLLLCTGVAKISILKFNTLTNSIDTLSLHYYEGKFKGKSLVELAKISTLRMDPGSSCALLFNNDIIAFLPFHVNKNDDDEEEEDEDENIDDSELIHSMNQKSQGTNTFNKRKRTKLGDKFTAPSVVLVASELYEGAKNIIDIQFLKNFTKPTIALLYQPKLVWAGNTTISKLPTQYVILTLNIQPAESATKIESTTIAFVKELPWDLHTIVPVSNGAIIVGTNELAFLDNTGVLQSTVLLNSFADKELQKTKIINNSSLEIMFREKNTTSIWIPSSKSKNGGSNNDETLLLMDLKSNIYYIQMEAEGRLLIKFDIFKLPIVNDLLKENSNPKCITRLNATNSNKNMDLFIGFGSGNALVLRLNNLKSTIETREAHNPSSGTNSLMDINDDDDEEMDDLYADEAPENGLTTNDSKGTVETVQPFDIELLSSLRNVGPITSLTVGKVSSIDDVVKGLPNPNKNEYSLVATSGNGSGSHLTVIQTSVQPEIELALKFISITQIWNLKIKGRDRYLITTDSTKSRSDIYESDNNFKLHKGGRLRRDATTVYISMFGEEKRIIQVTTNHLYLYDTHFRRLTTIKFDYEVIHVSVMDPYILVTVSRGDIKIFELEEKNKRKLLKVDLPEILNEMVITSGLILKSNMCNEFLIGLSKSQEEQLLFTFVTADNQIIFFTKDHNDRIFQLNGVDQLNESLYISTYQLGDEIVPDPSIKQVMINKLGHDNKEEYLTILTFGGEIYQYRKLPQRRSRFYRNVTRNDLAITGAPDNAYAKGVSSIERIMHYFPDYNGYSVIFVTGSVPYILIKEDDSTPKIFKFGNIPLVSVTPWSERSVMCVDDIKNARVYTLTTDNMYYGNKLPLKQIKISNVLDDYKTLQKLVYHERAQLFLVSYCKRVPYEALGEDGEKVIGYDENVPHAEGFQSGILLINPKSWKVIDKIDFPKNSVVNEMRSSMIQINSKTKRKREYIIAGVANATTEDTPPTGAFHIYDVIEVVPEPGKPDTNYKLKEIFQEEVSGTVSTVCEVSGRFMISQSQKVLVRDIQEDNSVIPVAFLDIPVFVTDSKSFGNLLIIGDAMQGFQFIGFDAEPYRMISLGRSMSKFQTMSLEFLVNGGDMYFAATDADRNVHVLKYAPDEPNSLSGQRLVHCSSFTLHSTNSCMMLLPRNEEFGSPQVPSFQNVGGQVDGSVFKIVPLSEEKYRRLYVIQQQIIDRELQLGGLNPRMERLANDFYQMGHSMRPMLDFNVIRRFCGLAIDRRKSIAQKAGRHAHFEAWRDIINIEFSMRSLCQGK
# B2: Ref2 (protein, UniProt P42073 1-533)
# chain: T2 sequence
# B3: Swd2 (protein, UniProt P36104 1-329)
# chain: MTTVSINKPNLLKFKHVKSFQPQEKDCGPVTSLNFDDNGQFLLTSSSNDTMQLYSATNCKFLDTIASKKYGCHSAIFTHAQNECIYSSTMKNFDIKYLNLETNQYLRYFSGHGALVNDLKMNPVNDTFLSSSYDESVRLWDLKISKPQVIIPSLVPNCIAYDPSGLVFALGNPENFEIGLYNLKKIQEGPFLIIKINDATFSQWNKLEFSNNGKYLLVGSSIGKHLIFDAFTGQQLFELIGTRAFPMREFLDSGSACFTPDGEFVLGTDYDGRIAIWNHSDSISNKVLRPQGFIPCVSHETCPRSIAFNPKYSMFVTADETVDFYVYDE
# B4: Pti1 (protein, UniProt P39927 1-425)
# chain: MTDPRRRTGRHFLTPENLSSTLQITNLPPEWNQDIITSVVAGSGPVIDIKAKNDPRTGKLTGVLFDYLTSKDCKRAWEILNRIENFPVKIEQIIPPNYKDHLRETANKNSQKQVLQLNRDSYPFEAGLELPFEMVTEVPIPRRPPPPQAANNTNSVSNNTNIQFPDILSKASKHLPSFQDGSIIAPDKISQNLSKIPPLQLIEIISNLKILSNQENIQKSQLESFLDTNSDITISVTQALLEMGFIDYSVVTKVLKSQVGEAPSLLSSNNTSNSNTPVSVIRNNTPLHVPSNEVSNNPNNMPLNVAMPMPMSTPPFIPLPLQQQPFGFAPPGPFMPPAQGPSMGQPVLANQLGQVQQQNISSTEGPSNANKANDSGTINMAKLQLLPENQQDMIKQVLTLTPAQIQSLPSDQQLMVENFRKEYII
# Molecular target: T1, Pta1-TAPS (S. cerevisiae)
# Assay: anion exchange chromatography; TAPS affinity purification from tagged yeast strain (Ref2-tagged; Pta1-tagged with SYC1 deleted), then Mono Q 5/50 GL in 20 mM HEPES pH 7.9, 150 mM KCl, 3 mM DTT, 0.5 mM Mg(OAc)2; APT eluted at 260 mM KCl and CPF at 400 mM KCl
row,binding,Binder
1,binds,B1
2,binds,B2
3,binds,B3
4,binds,B4

# Molecular target: T2, Ref2-TAPS (S. cerevisiae)
# Assay: as above
row,binding,Binder
1,binds,B1
2,binds,B3
3,binds,B4

# Molecular target: Pap1-TAPS (S. cerevisiae) (UniProt P29468)
# Assay: SEC; TAPS affinity purification from tagged yeast strain, then Superose 6 PC 3.2/30 in 20 mM HEPES pH 7.9, 150 mM KCl, 3 mM DTT, 0.5 mM Mg(OAc)2, 0.5 mM MnCl2; fractions on Coomassie-stained SDS-PAGE
row,binding,Binder
1,binds,B1
2,binds,B2
3,binds,B3
4,binds,B4

# Molecular target: T3, Syc1-TAPS (S. cerevisiae)
# Assay: as above
row,binding,Binder
1,no binding,B1
2,binds,B2
3,binds,B3
4,binds,B4

# Molecular target: T1, Pta1-TAPS (S. cerevisiae)
# Assay: as above
row,binding,Binder
1,binds,B1
2,binds,B2
3,binds,B3
4,binds,B4

# Molecular target: T4, Mpe1-TAPS (S. cerevisiae)
# Assay: as above
row,binding,Binder
1,binds,B1
2,binds,B2
3,binds,B3
4,binds,B4

# Molecular target: T2, Ref2-TAPS (S. cerevisiae)
# Assay: as above
row,binding,Binder
1,binds,B1
2,binds,B3
3,binds,B4
